Assay results reported in PubChem BioAssay AID504332 (National Center for Advancing Translational Sciences (NCATS), 2011).
Out of some 350,000 compounds screened, about 31,000 (8.9%) were called active. Inconclusive results, whose numbers are uncertain, are shown with a selection of clear calls. Calls come from the whole dose curve; as a rule, active = well fitted inhibition curve with a large enough effect; inconclusive = small, poorly fitted or top-dose-only effect; inactive = no such curve, though single readings can be large or run the other way. Potencies beside an inconclusive call are fits to weak or partial responses and may not hold up.

target: Histone-lysine N-methyltransferase EHMT2 (Homo sapiens) (UniProt Q96KQ7); assay: qHTS Assay for Inhibitors of Histone Lysine Methyltransferase G9a; settings: G9a H3K9 monomethylation, AlphaScreen, 2 h; activity, negative = inhibition: at 59 µM (top of the series) unless noted; note: nearly all actives have a fitted effect of over 75% in size
Procedure, shortened: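 G9a (20 nM) was preincubated 15 min with compound, then reacted 2 h at room temperature with 500 nM biotin-H3K9 peptide and 20 µM SAM. Monomethyl-H3K9 detected by AlphaScreen using anti-H3K9me1 antibody.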
% is set by controls: 0 for no effect and ±100 for the full control effect; potency is the fitted concentration of half-maximal effect; tags give direction and shape of the fitted curve.

UniProt Q96KQ7, sequence (Q96KQ7 whole entry, looked up): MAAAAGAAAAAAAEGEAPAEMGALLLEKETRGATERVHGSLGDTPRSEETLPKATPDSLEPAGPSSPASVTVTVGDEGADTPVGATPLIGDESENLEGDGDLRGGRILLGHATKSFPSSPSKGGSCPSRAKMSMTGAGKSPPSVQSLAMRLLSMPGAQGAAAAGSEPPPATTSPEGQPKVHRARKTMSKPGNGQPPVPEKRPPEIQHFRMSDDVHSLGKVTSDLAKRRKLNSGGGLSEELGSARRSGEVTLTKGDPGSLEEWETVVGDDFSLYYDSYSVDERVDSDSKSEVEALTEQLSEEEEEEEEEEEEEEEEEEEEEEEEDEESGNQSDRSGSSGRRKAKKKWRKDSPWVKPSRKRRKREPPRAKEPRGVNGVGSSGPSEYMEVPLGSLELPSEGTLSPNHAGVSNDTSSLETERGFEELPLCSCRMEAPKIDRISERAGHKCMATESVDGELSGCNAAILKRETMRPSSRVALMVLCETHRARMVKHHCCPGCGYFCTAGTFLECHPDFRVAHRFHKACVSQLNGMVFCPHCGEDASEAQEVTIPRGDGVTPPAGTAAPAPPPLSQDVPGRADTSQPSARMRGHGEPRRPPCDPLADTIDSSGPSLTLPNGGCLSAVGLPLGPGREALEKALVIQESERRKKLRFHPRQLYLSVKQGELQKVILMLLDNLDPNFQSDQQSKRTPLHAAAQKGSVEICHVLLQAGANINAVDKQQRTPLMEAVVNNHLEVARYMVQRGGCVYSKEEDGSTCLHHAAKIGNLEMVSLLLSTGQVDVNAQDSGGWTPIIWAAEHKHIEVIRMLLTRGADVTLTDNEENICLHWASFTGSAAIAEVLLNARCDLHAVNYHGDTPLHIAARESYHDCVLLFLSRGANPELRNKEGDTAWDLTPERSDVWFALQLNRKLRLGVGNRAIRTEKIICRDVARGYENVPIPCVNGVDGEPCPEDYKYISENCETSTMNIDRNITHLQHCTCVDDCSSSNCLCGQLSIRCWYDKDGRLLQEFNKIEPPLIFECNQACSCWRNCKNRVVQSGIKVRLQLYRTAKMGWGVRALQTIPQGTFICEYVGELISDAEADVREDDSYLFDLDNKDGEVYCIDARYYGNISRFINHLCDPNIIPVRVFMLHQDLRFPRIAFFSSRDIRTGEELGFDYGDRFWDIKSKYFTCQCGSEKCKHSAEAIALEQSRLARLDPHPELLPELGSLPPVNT

**Q.** For `COc1ccc2oc(C(=O)NCc3cc(OC)c(OC)cc3OC)c(C)c2c1`, which Potency is on record?
**A.** inconclusive: 79.4 µM [inhibitor, single point]

**Q.** With `COc1ccc(-c2cc(C(=O)N3CCN(c4ccccc4)CC3)c3ccccc3n2)cc1` as the compound, how does the Potency read?
**A.** active: 39.8 µM

**Q.** With `Cc1ccc(-c2nnn(CC(=O)N(CC(=O)NCCC(C)C)c3ccc(F)cc3)n2)cc1` as the compound, how does the Potency read?
**A.** inactive

**Q.** Which Potency does the source give for `CC(C)(C)c1ccc(OCCC(=O)OCC(=O)Nc2ccc(N3CCOCC3)cc2)cc1` here?
**A.** active: 44.7 µM

**Q.** Which Potency does the source give for `CCc1c(O)cc(=O)n(-c2ccccc2)c1-c1ccccc1` here?
**A.** inconclusive: 39.8 µM [inhibitor, single point]

**Q.** Which Potency does the source give for `Cc1cc(SCC(=O)OCC(=O)NCc2ccc3c(c2)OCO3)c(C)cc1Br` here?
**A.** inactive

**Q.** `Cc1ccc(C(=O)COC(=O)c2c(C)cc(=O)oc2C)cc1[N+](=O)[O-]` was tested. Which Potency did it give?
**A.** inconclusive: 0.794 µM [inhibitor, partial curve, poor fit]

**Q.** How did the Potency turn out when `CCC(C)NC(=O)c1ccccc1NC(=O)C1CCN(S(=O)(=O)Cc2ccccc2)CC1` (configuration not stated) was run?
**A.** inactive

**Q.** With `O=C1CCC(CCC(=O)N2CCCC(C(=O)c3cccc(C(F)(F)F)c3)C2)=NN1` (configuration not stated) as the compound, how does the Potency read?
**A.** inactive

**Q.** For `COc1cc(C)ccc1OCCOCCN(C)Cc1ccccc1`, which Potency is on record?
**A.** inconclusive: 22.4 µM [inhibitor, single point]

**Q.** How did the Potency turn out when `CCOC(=O)C1(Cc2ccccc2C(F)(F)F)CCN(Cc2ccc(COC)o2)CC1` was run?
**A.** inconclusive: 39.8 µM [inhibitor, partial curve, poor fit]

**Q.** `COc1ccc2c(=O)c3c(=O)n(Cc4ccco4)c(C(C)C)nc3oc2c1` was tested. Which Potency did it give?
**A.** inconclusive: 35.5 µM [inhibitor, single point]

**Q.** Which Potency does the source give for `Cc1coc2c1c(C)cc1oc(=O)c(CC(=O)NCc3ccc(Cl)cc3)c(C)c12` here?
**A.** inactive

**Q.** With `COc1ccc(C2N(C(=O)c3ccccc3)CCN2C(=O)c2ccccc2)cc1` as the compound, how does the activity, negative = inhibition read?
**A.** inconclusive: -82.2% [inhibitor]

**Q.** For `O=C(NNc1c(Cl)cncc1Cl)c1sccc1Cl`, which Potency is on record?
**A.** inconclusive: 56.2 µM [inhibitor, partial curve]

**Q.** With `CCn1c(CCn2ccnc2C)n[nH]c1=S` as the compound, how does the Potency read?
**A.** inconclusive: 22.4 µM [inhibitor, single point]

**Q.** With `CCN(C(=O)CO/N=C/c1ccc(OC)cc1OC)c1c(N)n(Cc2ccccc2)c(=O)[nH]c1=O` as the compound, how does the activity, negative = inhibition read?
**A.** inactive: -11.2% [at 2.33 µM]

**Q.** How did the Potency turn out when `Cc1ccc2nc(-c3c[nH]c4ccccc34)c(Nc3ccccc3)n2c1` was run?
**A.** active: 7.94 µM

**Q.** `CCOc1cc(Br)cc(C(c2c(C(=O)O)[nH]c3ccccc23)c2c(C(=O)O)[nH]c3ccccc23)c1O` was tested. Which activity, negative = inhibition did it give?
**A.** inactive: 19.9% [at 0.501 µM]

**Q.** How did the Potency turn out when `Oc1cccc(/C=N/N2CCN(C3c4ccccc4-c4ccccc43)CC2)c1` was run?
**A.** inconclusive: 44.7 µM [inhibitor, partial curve]

**Q.** How did the Potency turn out when `Nc1nonc1C(=O)NCCNc1ncccc1[N+](=O)[O-]` was run?
**A.** inactive

**Q.** How did the Potency turn out when `COc1ccc(C2=NOC3(CC(=O)N(c4ccc(C)cc4)C3=O)C2)cc1` (configuration not stated) was run?
**A.** inconclusive: 89.1 µM [inhibitor, single point]

**Q.** With `O=C(c1ccccc1F)N1CCN(c2ccc([N+](=O)[O-])c3cccnc23)CC1` as the compound, how does the Potency read?
**A.** inconclusive: 39.8 µM [inhibitor, partial curve]

**Q.** For `Cc1ccc(C(C)C)c(OCC(=O)Nc2nc3c(s2)CCCC3)c1`, which Potency is on record?
**A.** inactive

**Q.** For `O=C(NCc1nnc(SCC(=O)N2CCCC2)o1)c1ccc(F)cc1`, which Potency is on record?
**A.** inactive

**Q.** For `COc1ccccc1CN1CCN(Cc2ccco2)CC1`, which Potency is on record?
**A.** active: 44.7 µM

**Q.** `CCNS(=O)(=O)c1ccc(NC(=O)c2ccc(Cn3cc(Br)cn3)o2)cc1` was tested. Which Potency did it give?
**A.** inconclusive: 89.1 µM [inhibitor, single point]

**Q.** For `COc1ccc(OC)c(-c2cc(C(=O)N3CCN(c4ncccn4)CC3)c3ccccc3n2)c1`, which Potency is on record?
**A.** inconclusive: 89.1 µM [inhibitor, single point]

**Q.** For `O=C(CSc1nc2ncccc2[nH]1)NC1CCCCC1`, which Potency is on record?
**A.** inconclusive: 35.5 µM [inhibitor, single point]

**Q.** For `N=c1n(CCN2CCCC2)c2ccccc2n1CC(O)c1ccc(Cl)c(Cl)c1` (configuration not stated), which Potency is on record?
**A.** inconclusive: 50.1 µM [inhibitor, partial curve]

**Q.** With `COc1ccc(-c2cnc(NCc3ccc(C)cc3)n2C)cc1` as the compound, how does the Potency read?
**A.** active: 3.55 µM

**Q.** `Cc1cc(OCC(=O)NCCN2CCOCC2)cc(C)c1Br` was tested. Which Potency did it give?
**A.** inconclusive: 31.6 µM [inhibitor, single point]

**Q.** For `O=C(c1ccc(Cl)cc1)N1CCC(O)(CSc2ccc(Cl)cc2)CC1`, which Potency is on record?
**A.** inactive

**Q.** Which Potency does the source give for `O=C(N/C(=C\c1ccco1)C(=O)N1CCCC1)c1ccccc1` here?
**A.** active: 39.8 µM

**Q.** `CCC(C)NC(=O)c1sc2nc(C)c(C(=O)Nc3ccc(C)cc3C)c(-c3ccc(Br)cc3)c2c1N` (configuration not stated) was tested. Which Potency did it give?
**A.** inconclusive: 7.08 µM [inhibitor, single point]

**Q.** Which Potency does the source give for `CN(c1ccccc1)S(=O)(=O)c1cccc(NC(=O)Cn2cnc3ccccc3c2=O)c1` here?
**A.** inconclusive: 89.1 µM [inhibitor, single point]

**Q.** With `Cc1ccc2[nH]c(=O)c3cc(C(=O)N4CCN(c5ccccc5F)CC4)sc3c2c1` as the compound, how does the Potency read?
**A.** inactive

**Q.** For `CCN(CC)S(=O)(=O)c1ccc(C)c(NS(=O)(=O)c2cc(/C=C/C(=O)O)cc(OC)c2OC)c1`, which Potency is on record?
**A.** inconclusive: 56.2 µM [inhibitor, partial curve, poor fit]

**Q.** `Cc1ccc(CCN2CC(C(=O)NCCN(C)C)CC2=O)cc1` (configuration not stated) was tested. Which Potency did it give?
**A.** inactive

**Q.** For `O=C(NCc1ccccc1)c1cccc(NC(=O)N2CCSc3ncccc32)c1`, which Potency is on record?
**A.** inconclusive: 5.01 µM [inhibitor, partial curve, poor fit]

**Q.** `NC(=O)COC(=O)c1ccc(Cl)c(S(=O)(=O)N2CCN(c3ccc(F)cc3)CC2)c1` was tested. Which Potency did it give?
**A.** inconclusive: 56.2 µM [inhibitor, partial curve, poor fit]

**Q.** With `Cc1noc(C)c1S(=O)(=O)N1CCCC(C(=O)N2CCN(C3CCCCC3)CC2)C1` (configuration not stated) as the compound, how does the Potency read?
**A.** inconclusive: 39.8 µM [inhibitor, single point]

**Q.** For `Cc1cc(C)c(C)c(S(=O)(=O)N2CCC(C(=O)Nc3ccccc3N3CCOCC3)CC2)c1C`, which Potency is on record?
**A.** inconclusive: 1.41 µM [inhibitor, partial curve, poor fit]

**Q.** `COc1ccccc1NC(=O)CSc1oc(-c2cccs2)nc1S(=O)(=O)c1ccc(C)cc1` was tested. Which Potency did it give?
**A.** inconclusive: 8.91 µM [inhibitor, partial curve, poor fit]

**Q.** `COc1ccc(CCNC(=S)Nc2cc(C)ccc2C)cc1` was tested. Which Potency did it give?
**A.** inactive

**Q.** How did the Potency turn out when `Fc1c(CSC(=S)N2CCOCC2)cccc1CSC(=S)N1CCOCC1` was run?
**A.** inactive

**Q.** How did the Potency turn out when `CCN(CC(=O)Nc1ccccc1C(F)(F)F)C(=O)/C=C/c1ccc(Cl)c([N+](=O)[O-])c1` was run?
**A.** active: 17.8 µM

**Q.** Which Potency does the source give for `CCN(CC)C(=O)CSc1nc2ncc(Cl)cc2[nH]1` here?
**A.** inconclusive: 79.4 µM [inhibitor, partial curve, poor fit]

**Q.** With `O=C(c1ccc2c3n(nc2c1)-c1ccccc1CO3)N1CCOCC1` as the compound, how does the activity, negative = inhibition read?
**A.** inconclusive: -77.1% [inhibitor] [at 12.7 µM]

**Q.** With `COc1cc(-c2nc3ccccn3c2/N=C/c2ccccc2)ccc1O` as the compound, how does the Potency read?
**A.** inconclusive: 44.7 µM [inhibitor, partial curve, poor fit]

**Q.** For `O=C(Nc1cccnc1)Nc1cc(Cl)cc(Cl)c1`, which Potency is on record?
**A.** active: 79.4 µM

**Q.** Which Potency does the source give for `O=C(CN1C(=O)COc2ccc(S(=O)(=O)N3CCCCC3)cc21)NCCc1ccc(Cl)cc1` here?
**A.** inactive

**Q.** Which Potency does the source give for `COc1ccc(OCC(O)CNc2ccc(Br)cc2)cc1` (configuration not stated) here?
**A.** inconclusive: 35.5 µM [inhibitor, single point]

**Q.** How did the Potency turn out when `COc1ccc(-c2nc3ccc(C(=O)NCc4ccccc4)cc3nc2-c2ccc(OC)cc2)cc1` was run?
**A.** inactive

**Q.** For `CC(=O)Nc1c(O)nc(SCC(=O)Nc2sc3c(c2C#N)CCCCCC3)[nH]c1=O`, which Potency is on record?
**A.** inconclusive: 39.8 µM [inhibitor, single point]

**Q.** With `CCn1ccc2cc(S(=O)(=O)N3CCC(C(=O)NCc4ccc(OC(C)C)cc4)CC3)ccc21` as the compound, how does the Potency read?
**A.** inactive

**Q.** How did the Potency turn out when `O=C(CN1C(=O)c2cccc3cccc1c23)NC1CCCC1` was run?
**A.** inactive

**Q.** `O=C(Nc1nnc(S(=O)(=O)N2CCCC2)s1)c1ccccc1Cl` was tested. Which Potency did it give?
**A.** inconclusive: 11.2 µM [inhibitor, partial curve]

**Q.** `COc1cc(C2Oc3cc(C4Oc5cc(O)cc(O)c5C(=O)C4O)ccc3OC2CO)ccc1O` (configuration not stated) was tested. Which Potency did it give?
**A.** active: 50.1 µM

**Q.** `O=C(O)CSc1ccnc2cc(Cl)ccc12` was tested. Which Potency did it give?
**A.** active: 56.2 µM

**Q.** `CN1CCc2c(OCC(=O)N3CCC(Cc4ccccc4)CC3)cccc2C1=O` was tested. Which Potency did it give?
**A.** inactive

**Q.** Which Potency does the source give for `Cc1ccc(Sc2ccc(/C=N/O)cc2[N+](=O)[O-])cc1` here?
**A.** inconclusive: 25.1 µM [inhibitor, single point]

**Q.** Which Potency does the source give for `Cc1cccc(-n2nc3c(c2NC(=O)C2CC2)CS(=O)(=O)C3)c1C` here?
**A.** inactive

**Q.** For `CC1CCCCC1NCC(=O)Nc1ccccc1-c1ccccc1` (configuration not stated), which Potency is on record?
**A.** active: 6.31 µM

**Q.** For `COc1cc(/C=N/N2CCN(C3c4ccccc4-c4ccccc43)CC2)ccc1O`, which activity, negative = inhibition is on record?
**A.** inconclusive: -97.5% [inhibitor]

**Q.** How did the Potency turn out when `COc1ccc(N2CCN(S(=O)(=O)c3c(C)nc4sc(C)cn4c3=O)CC2)cc1` was run?
**A.** inconclusive: 8.91 µM [inhibitor, full curve]

**Q.** With `CC[n+]1c(C)cc2c(sc3ccccc32)c1C` as the compound, how does the Potency read?
**A.** active: 22.4 µM

**Q.** With `COc1ccc(-c2ccc(=O)n(CC(=O)Nc3ccc(N(C)C)cc3)n2)cc1` as the compound, how does the Potency read?
**A.** active: 5.01 µM

**Q.** Which Potency does the source give for `O=C(COc1ccc(Br)cc1CO)Nc1ccc(S(=O)(=O)N2CCCC2)cc1` here?
**A.** inconclusive: 56.2 µM [inhibitor, partial curve, poor fit]

**Q.** For `O=C(CNC(=O)c1ccc(Cl)cc1Cl)OCn1nnc2ccccc2c1=O`, which Potency is on record?
**A.** inconclusive: 79.4 µM [inhibitor, single point]

**Q.** `CCn1c(NC(=O)c2ccc(F)cc2)c2ccccc2nc1=O` was tested. Which Potency did it give?
**A.** inactive

**Q.** How did the activity, negative = inhibition turn out when `O=C(COC(=O)CNC(=O)c1ccccc1)NCCNC(=O)COC(=O)CNC(=O)c1ccccc1` was run?
**A.** inactive: 17% [at 12.7 µM]
